Measured values reported in patent publication EP0447704A1, “N-Acylated azacyclic compounds, processes for their preparations and their use as medications” (Smithkline Beecham Farmaceutici S.p.A., priority 1990, dated 1991).
Structures can show the parent of a compound that is named as a salt. The name of at least one read-out is uncertain.

System: mice
Test: Tail-flick test in mice
Type: in vivo, Male Charles River mice (Swiss Strain)
Conditions: for DURATION OF ACTION M. TAIL-FLICK (GRADED) % ACTIVITY AT MTFQ ED50 30': dose = mouse tail-flick quantal ED50, 30'; for DURATION OF ACTION M. TAIL-FLICK (GRADED) % ACTIVITY AT MTFQ ED50 90': dose = mouse tail-flick quantal ED50, 90'
Description: B) Tail-flick test in mice
The methodology employed is based on that described by D'Amour and Smith, J. Pharmacol. Exp. Ther. 72, 74/1941.
Male Charles River mice (Swiss Strain), 22-34g body weight were used. Animals were allowed food and water ad libitum and were randomized into groups of 10 prior to experimentation.
Test compounds were dissolved in either distilled water or distilled water plus 0.1 M AMS and administered by the subcutaneous route in a final volume of 10 ml/Kg. Control animals received 10 ml/kg of the appropriate vehicle alone. Following a pretreatment period of 30 min., the mice were again placed under the heat source and the reaction tine re-determined.
Percentage quantal protection was determined as the number of mice in which the reaction time was doubled compared to pretreatment values, expressed as a percentage of the total number of mice in the group.

Compound	DURATION OF ACTION M. TAIL-FLICK (GRADED) % ACTIVITY AT MTFQ ED50 30'	DURATION OF ACTION M. TAIL-FLICK (GRADED) % ACTIVITY AT MTFQ ED50 90'
CC1(C)CCCN(C(=O)Cc2ccc(C(F)(F)F)cc2)C1CN1CCCC1 (racemic) [Example 10, 1-(4-trifluoromethylphenyl)acetyl-2-(pyrrolidin-1-yl)methyl-3,3-dimethyl piperidine hydrochloride]	59%	57%
CC1CCCN(C(=O)Cc2ccc(Cl)c(Cl)c2)C1CN1CCCC1 (single isomer, unassigned) [Example 1, 1-(3,4-dichlorophenyl)acetyl-2-(pyrrolidin-1-yl)methyl-3-methyl piperidine hydrochloride hemihydrate diasteroisomer A]	87%	68%
CC1CCCN(C(=O)Cc2ccc(Cl)c(Cl)c2)C1CN1CCCC1 (single isomer, unassigned) [Example 2, 1-(3,4-dichlorophenyl)acetyl-2-(pyrrolidin-1-yl)methyl-3-methyl piperidine hydrochloride diasteroisomer B]	66%	44%
CC1CCC(CN2CCCC2)N(C(=O)Cc2ccc(Cl)c(Cl)c2)C1 (single isomer, unassigned) [Example 4, 1-(3,4-dichlorophenylacetyl)-2-(pyrrolidin-1-yl)methyl-5-methyl piperidine hydrochloride diasteroisomer A]	80%	54%
CC1CCN(C(=O)Cc2ccc(Cl)c(Cl)c2)C(CN2CCCC2)C1 (single isomer, unassigned; diastereoisomer a) [Example 3, 1-(3,4-dichlorophenylacetyl)-2-(pyrrolidin-1-yl)methyl-4-methyl piperidine hydrochloride hemihydrate diastereoisomer A]	86%	17%
CC1CCCC(CN2CCCC2)N1C(=O)Cc1ccc(Cl)c(Cl)c1 (single isomer, unassigned; diastereoisomer a) [Example 5, 1-(3,4-dichlorophenyl)acetyl-2-(pyrrolidin-1-yl)methyl-6-methyl piperidine hydrochloride diastereoisomer A]	83%	42%
CC1CCCC(CN2CCCC2)N1C(=O)Cc1ccc(Cl)c(Cl)c1 (single isomer, unassigned; diastereoisomer a) [Example 6, 1-(3,4-dichlorophenyl)acetyl-2-(pyrrolidin-1-yl)methyl-6-methyl piperidine hydrochloride hemihydrate Diastereoisomer A]	77%	35%
CC1(C)CCCN(C(=O)Cc2ccc(Cl)c(Cl)c2)C1CN1CCCC1 (stereo not drawn) [Example 9, 1-(3,4-dichlorophenyl)acetyl-2-(pyrrolidin-1-yl)methyl-3,3-dimethyl piperidine hydrochloride]	86%	58%
CC1(C)CCC(CN2CCCC2)N(C(=O)Cc2ccc(Cl)c(Cl)c2)C1 (stereo not drawn) [Example 11, 1-(3,4-dichlorophenyl)acetyl-2-(pyrrolidin-1-yl)methyl-5,5-dimethyl piperidine hydrochloride]	59%	57%
CC1(C)CCCN(C(=O)Cc2ccc3c(c2)CCCC3)C1CN1CCCC1 (stereo not drawn) [Example 12, 1-(5,6,7,8-tetrahydronapht-2-yl)acetyl-2-(pyrrolidin-1-yl) methyl-3,3-dimethyl piperidine hydrochloride]	67%	65%
CC1(C)CCN(C(=O)Cc2ccc(Cl)c(Cl)c2)C(CN2CCCC2)C1 (stereo not drawn) [Example 14, 1-(3,4-dichlorophenyl)acetyl-2-(pyrrolidin-1-yl)methyl-4,4-dimethyl piperidine hydrochloride]	69%	69%
CC1(C)CCN(C(=O)Cc2ccc(C(F)(F)F)cc2)C(CN2CCCC2)C1 (stereo not drawn) [Example 15, 1-(4-trifluoromethylphenyl)acetyl-2-(pyrrolidin-1-yl)methyl-4,4-dimethyl piperidine hydrochloride]	58%	63%
